Assay results from PubChem BioAssay AID488969 (Vanderbilt High Throughput Screening Facility, 2010).
The full ranking holds about 110,000 compounds; the median of “z-score” is about -0.1, and the highest 2% start at about 2. Some of the results follow. The source made the active and inactive calls.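 Rule for the calls: active = z-score in the third read window above 3 or below -3; inactive = the rest.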

Molecular target: Metabotropic glutamate receptor 8 (Rattus norvegicus) (UniProt P70579)
Test: rat mGluR8 modulators via GIRK flux, primary screen, cell-based, thallium flux, HTS (AID 488969)
Conditions: HEK293 rat mGluR8, GIRK (G protein-gated inwardly rectifying potassium channel) thallium flux, FluoZin2; at 10 µM; stronger effect = higher value; submaximal glutamate (EC20) added with thallium

Sequence of UniProt P70579 (P70579 whole entry, looked up): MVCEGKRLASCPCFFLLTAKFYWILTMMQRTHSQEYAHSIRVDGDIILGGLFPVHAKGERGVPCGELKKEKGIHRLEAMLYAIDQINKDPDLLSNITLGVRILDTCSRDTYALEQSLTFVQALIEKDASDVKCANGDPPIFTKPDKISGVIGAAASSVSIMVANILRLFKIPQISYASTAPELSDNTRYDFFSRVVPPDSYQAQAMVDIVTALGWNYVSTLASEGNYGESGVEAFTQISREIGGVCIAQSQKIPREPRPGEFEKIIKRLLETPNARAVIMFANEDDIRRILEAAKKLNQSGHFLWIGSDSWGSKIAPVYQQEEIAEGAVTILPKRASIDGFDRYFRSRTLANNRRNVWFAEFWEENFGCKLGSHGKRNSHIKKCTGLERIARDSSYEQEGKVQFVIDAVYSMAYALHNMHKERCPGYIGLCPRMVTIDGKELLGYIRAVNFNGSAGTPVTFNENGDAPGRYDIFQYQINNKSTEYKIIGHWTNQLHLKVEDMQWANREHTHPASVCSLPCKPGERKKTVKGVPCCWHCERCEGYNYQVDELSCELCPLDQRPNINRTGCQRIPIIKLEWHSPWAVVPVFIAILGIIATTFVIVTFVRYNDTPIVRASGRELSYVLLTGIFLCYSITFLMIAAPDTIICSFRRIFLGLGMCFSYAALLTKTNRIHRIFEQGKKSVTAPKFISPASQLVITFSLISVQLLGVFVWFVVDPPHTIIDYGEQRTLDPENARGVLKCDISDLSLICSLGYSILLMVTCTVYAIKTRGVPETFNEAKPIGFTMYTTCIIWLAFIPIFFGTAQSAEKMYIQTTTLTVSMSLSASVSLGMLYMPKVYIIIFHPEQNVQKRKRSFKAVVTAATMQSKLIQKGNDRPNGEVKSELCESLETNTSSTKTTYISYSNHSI

| SMILES | z-score |
| --- | --- |
| Cc1cc2ncn(C3CC(=O)N(Cc4ccccc4)C3=O)c2cc1C (stereo unspecified) | 0.055 |
| O=c1[nH]c(CN2CCCCC2)nc2ccccc12 | 0.00805 |
| O=C(Oc1ccccc1)c1ccccc1OS(=O)(=O)c1ccccc1 | -0.195 |
| COCCCN(C(=O)Nc1ccc(C)c(C)c1)C(C)c1ccccn1 (stereo unspecified) | -0.345 |
| COc1ccc(C(=O)NNC2=NC(C)(C)Cc3ccccc32)cc1 | 0.619 |
| CCc1cc2c(CN3CCN(CCO)CC3)cc(=O)oc2cc1O | 0.149 |
| CC(=O)Nc1ccc(S(=O)(=O)NNC(=O)c2cc3c4ccccc4n(C)c3s2)cc1 | -0.78 |
| CCOC(=O)c1ccc(Nc2ncnc3nc[nH]c23)cc1 | -0.0179 |
| CCN(CC)c1ccc(NC(=O)CSc2ccsc2[N+](=O)[O-])c(C)c1 | -0.0677 |
| CN(C)c1ccc(C2N(C(=O)N3CCOCC3)CCN2S(=O)(=O)c2ccccc2)cc1 (stereo unspecified) | -0.722 |
| CCC(C)C(=O)Nc1ccc(OC)cc1OC (stereo unspecified) | -0.0848 |
| CC1CCC(C(C)C)C(OC(=O)Cn2c(-c3ccc(F)cc3)[n+](C)c3ccccc32)C1 (stereo unspecified) | -0.093 |
| COc1cccc(C(=O)N2CCCc3ccccc32)c1 | -1.31 |
| CC1CN(Cc2nc3c(c(=O)n(C)c(=O)n3C)n2CCCO)CC(C)O1 (stereo unspecified) | -0.388 |
| CN1CC=C2C(C#N)=C(N)C(C#N)(C#N)[C@H](c3ccoc3)[C@H]2C1 | 0.459 |
| O=Cc1ccc(OC2OCCOC2Oc2ccc(C=O)cc2)cc1 (stereo unspecified) | -0.288 |
| CC1(c2cccc3ccccc23)NC(=O)N(CC(=O)NC2CCS(=O)(=O)C2)C1=O (stereo unspecified) | -0.069 |
| O=S(=O)(c1ccc(N2CCCC2)nc1)N1CCOCC1 | -0.203 |
| O=C1Nc2ccccc2C1(c1ccccc1)c1ccccc1 | -0.565 |

| SMILES | z-score |
| --- | --- |
| CCOC(=O)c1ccc(NC(=O)CCC(CC)C(=O)O)cc1 (stereo unspecified) | -0.395 |
| COc1ccc(-n2cc(-c3ccc(C)cc3)[n+]3c2SCC3)cc1 | -0.0247 |
| Cc1ccc(C(=O)N/C(=C\c2cccs2)C(=O)NCc2ccncc2)cc1 | -0.136 |
| COc1cccc(NC(=S)N/N=C2/CCCCc3ccccc32)c1 | active: 8.28 |
| CCCCn1c(CN(C)Cc2ccccc2)nc2c1c(=O)n(C)c(=O)n2C | 0.165 |
| O=C(Nc1cccc(S(=O)(=O)N2CCOCC2)c1)c1c2c(nc3ccccc13)CCC2 | 0.614 |
| COc1cccc(NC(=O)CCNC(=O)Cn2ccc3ccccc3c2=O)c1 | 0.105 |
| COc1ccc(O)c(-c2[nH]ncc2C(=O)c2ccccc2C)c1 | 0.0126 |
| COc1cc(OC)cc(-c2nnc(Sc3ccc(C=O)cc3[N+](=O)[O-])o2)c1 | -0.277 |
| OCC(O)C(O)C(O)C(O)C1NCCS1 (stereo unspecified) | -0.0483 |
| CCN1CCN(C(=O)c2ccc3c(c2)N(Cc2ccc(F)cc2)C(=O)c2ccccc2S3=O)CC1 (stereo unspecified) | 0.168 |
| O=C(Nc1cc(F)cc(F)c1)c1sc(Cl)nc1-c1ccccc1 | -0.761 |
| N#Cc1nc(-c2ccccc2)oc1NCc1ccco1 | -0.705 |
| Cc1coc2cc3oc(=O)c(Cc4ccccc4)c(C)c3cc12 | -0.211 |
| CC(/C=C/c1cccc([N+](=O)[O-])c1)=N/NC(=O)c1cccnc1 | 0.153 |
| O=C(CSc1nc2ccccc2[nH]1)NC1CCCc2ccccc21 (stereo unspecified) | 2.41 |
| N=c1c(-c2nc3ccccc3[nH]2)cc(C(=O)c2cccs2)nn1-c1ccccc1 | -0.503 |
| CC(C)N=C(NS(=O)(=O)c1ccccc1)C(Cl)(Cl)Cl | -0.332 |
| CCN(CC)S(=O)(=O)c1cccc(-c2cn3cc(C)ccc3n2)c1 | -0.0561 |

| SMILES | z-score |
| --- | --- |
| O=S(=O)(N/N=C\c1cccn1-c1ccccc1)c1ccc2ccccc2c1 | -0.422 |
| Cc1c(CCOC(=O)C23CC4CC(CC(C)(C4)C2)C3)sc[n+]1Cc1ccccc1 | -0.00408 |
| COc1ccc(Cn2c(SC)nc3ccccc32)cc1[N+](=O)[O-] | -0.0198 |
| Cc1ccc(NC(=O)C(NS(=O)(=O)c2cccc3nsnc23)C(C)C)nc1 (stereo unspecified) | 0.00924 |
| CSc1ncccc1C(=O)OCn1nnc2ccccc2c1=O | 0.583 |
| Cn1nnc(NC(=O)c2ccccc2F)n1 | 0.261 |
| O=C1CC(c2ccccc2)N1c1ccccc1 (stereo unspecified) | -0.0215 |
| CCn1ncc(/C=C/C(=O)NCc2cn(C)nc2C)c1C | 0.00593 |
| Cc1cc(C(=O)OCC(=O)Nc2cccc(S(=O)(=O)N3CCOCC3)c2)c(C)o1 | -0.115 |
| CCCCn1c(N)c(Sc2ccc(Cl)cc2)c(=O)[nH]c1=O | -1.52 |
| O=C(Nc1c2c(nn1-c1ccc(F)cc1)CS(=O)C2)C12CC3CC(CC(C3)C1)C2 (stereo unspecified) | 0.22 |
| Cc1ccc2nc(Cl)c(/C=N/NC(=O)c3ccccc3O)cc2c1 | -0.193 |
| COc1ccc(-c2ccc(=O)n(CC(=O)NCc3ccco3)n2)cc1 | -0.186 |
| CCCCNC(=O)c1onc(CSc2ccc(F)cc2)c1C(=O)O | -0.458 |
| Cc1cnc(C)c(N2CCC(C(=O)NCc3ccco3)CC2)n1 | 0.265 |
| CCN1C(=O)C2C(c3cccc(F)c3)NC(C)(C(=O)OC)C2C1=O (stereo unspecified) | 0.07 |
| CCOc1ccc(/C=N/NC(=O)C2(O)c3ccccc3-c3ccccc32)cc1 | -0.134 |
| COc1ccc(C(=O)NC(=S)Nc2nnn(C)n2)cc1 | -0.935 |
